Measurements taken from PubChem BioAssay AID504332 (National Center for Advancing Translational Sciences (NCATS), 2011).
The campaign covered roughly 350,000 compounds. About 31,000 (8.9%) were called active. The shares of active, inactive and inconclusive entries below differ from those in the screen. Calls come from the whole dose curve; as a rule, active = well fitted inhibition curve with a large enough effect; inconclusive = small, poorly fitted or top-dose-only effect; inactive = no such curve, though single readings can be large or run the other way. Where the call is inconclusive, the potency comes from a doubtful curve fit.

Target: Histone-lysine N-methyltransferase EHMT2 (Homo sapiens) (UniProt Q96KQ7)
Test: qHTS Assay for Inhibitors of Histone Lysine Methyltransferase G9a; note: nearly all actives have a fitted effect of over 75% in size
Settings: G9a H3K9 monomethylation, AlphaScreen, 2 h; activity, negative = inhibition: at 59 µM (top of the series) unless noted
Procedure, shortened: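 Using a bead-based AlphaScreen, monomethylated H3K9 product from 2 h room-temperature reactions (G9a 20 nM, peptide 500 nM, SAM 20 uM) was detected with 0.5 ug/mL rabbit anti-H3K9me1 antibody.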
% is set by controls: 0 for no effect and ±100 for the full control effect; potency is the fitted concentration of half-maximal effect; tags give direction and shape of the fitted curve.

Chain of UniProt Q96KQ7 (Q96KQ7 whole entry, looked up): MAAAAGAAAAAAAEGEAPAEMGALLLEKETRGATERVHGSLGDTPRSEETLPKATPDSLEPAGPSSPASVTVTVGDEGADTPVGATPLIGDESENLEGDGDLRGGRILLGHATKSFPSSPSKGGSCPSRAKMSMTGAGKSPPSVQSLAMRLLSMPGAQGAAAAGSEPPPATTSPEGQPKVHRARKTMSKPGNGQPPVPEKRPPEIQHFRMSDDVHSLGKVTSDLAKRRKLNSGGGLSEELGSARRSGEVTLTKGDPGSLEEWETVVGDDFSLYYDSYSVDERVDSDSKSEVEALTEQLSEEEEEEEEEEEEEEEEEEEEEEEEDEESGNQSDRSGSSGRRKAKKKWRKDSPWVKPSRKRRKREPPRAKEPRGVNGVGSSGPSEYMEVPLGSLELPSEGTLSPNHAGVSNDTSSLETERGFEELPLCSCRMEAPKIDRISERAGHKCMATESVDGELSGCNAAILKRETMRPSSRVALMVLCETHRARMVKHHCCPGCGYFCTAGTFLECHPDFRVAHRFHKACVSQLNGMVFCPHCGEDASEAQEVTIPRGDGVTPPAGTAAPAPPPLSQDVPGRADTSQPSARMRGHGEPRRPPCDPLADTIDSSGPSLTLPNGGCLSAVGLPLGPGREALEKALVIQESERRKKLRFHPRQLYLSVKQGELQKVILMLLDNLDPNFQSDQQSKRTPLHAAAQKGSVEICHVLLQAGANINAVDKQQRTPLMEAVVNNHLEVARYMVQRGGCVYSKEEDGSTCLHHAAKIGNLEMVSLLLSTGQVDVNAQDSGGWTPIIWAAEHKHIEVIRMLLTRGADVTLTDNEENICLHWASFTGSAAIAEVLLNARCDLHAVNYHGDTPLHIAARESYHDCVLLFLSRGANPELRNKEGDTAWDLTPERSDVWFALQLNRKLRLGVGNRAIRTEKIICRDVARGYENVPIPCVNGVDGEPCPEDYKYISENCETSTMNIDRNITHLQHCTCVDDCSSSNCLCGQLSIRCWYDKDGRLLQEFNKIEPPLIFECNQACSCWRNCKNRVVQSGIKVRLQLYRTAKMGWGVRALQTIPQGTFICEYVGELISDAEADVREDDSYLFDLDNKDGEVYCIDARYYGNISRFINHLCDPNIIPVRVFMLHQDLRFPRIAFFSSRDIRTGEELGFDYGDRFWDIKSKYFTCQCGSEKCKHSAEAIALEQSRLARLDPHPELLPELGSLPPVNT

SMILES | Potency | activity, negative = inhibition
O=C(NCC(c1ccco1)N1CCc2ccccc2C1)c1ccc(Br)cc1 (centres undefined) | inconclusive: 79.4 µM [inhibitor, partial curve, poor fit] | 
O=C(CN1CCN(c2ncccn2)CC1)Nc1ccccc1-n1cccc1 | active: 4.47 µM | 
NC(=O)c1ccc(N2CCCCC2)c(N2C(=O)C3CC=CCC3C2=O)c1 (centres undefined) |  | inactive: 1.3% [at 12.7 µM]
COc1ccccc1C(=O)Nc1ccc(S(=O)(=O)N2CCCCC2)cc1 | inconclusive: 2.24 µM [inhibitor, full curve] | 
Cc1cccc(N2C(=O)c3cccc(Oc4ccc(Cl)cc4)c3C2=O)c1 |  | inactive: 44.6%
O=C(O)[C@@H]1C[C@H](C(=O)O)N1 | active: 11.9 µM | 
O=[N+]([O-])c1cccc(S(=O)(=O)Nc2ccc(Cc3ccncc3)cc2)c1 |  | inconclusive: -99.5% [inhibitor]
CCN(CC(=O)NC(=O)NCc1ccccc1)Cc1nc2ccccc2c(=O)[nH]1 | inconclusive: 31.6 µM [inhibitor, partial curve, poor fit] | 
O=S(=O)(CCN1CCOCC1)c1ccc(OC(F)(F)F)cc1 | inconclusive: 79.4 µM [inhibitor, single point] | 
Cn1c(SCc2cnc(-c3ccccc3)s2)nnc1C1COc2ccccc2O1 (centres undefined) | inconclusive: 89.1 µM [inhibitor, partial curve, poor fit] | 
CC(=O)Nc1n[nH]c(S(=O)(=O)Cc2ccc(Cl)cc2Cl)n1 | active: 44.7 µM | 
Cc1ccc(S(=O)(=O)N(CC(=O)O)Cc2ccco2)cc1 | active: 31.6 µM | 
Cn1[nH]c(C(F)(F)F)c(C=Nc2ccc(Cl)cc2)c1=O | inconclusive: 0.562 µM [inhibitor, full curve, poor fit] | 
Cc1ccc(C)c(N(C(=O)CS(=O)CC(=O)Nc2ccc3c(c2)OCO3)C(C)C(=O)NC2CCCC2)c1 (centres undefined) | inconclusive: 39.8 µM [inhibitor, single point] | 
O=C(CSCc1ccc([N+](=O)[O-])cc1)Nc1cccc(C(=O)Nc2ccccc2C(=O)O)c1 | inconclusive: 89.1 µM [inhibitor, single point] | 
CCCCSc1nc(NCc2ccco2)c2c3c(sc2n1)COC(C)(C)C3 | active: 50.1 µM | 
O=C(COc1ccc(S(=O)(=O)NC2CCCCC2)cc1)Nc1ccc2c(c1)OCCO2 | inconclusive: 50.1 µM [inhibitor, partial curve, poor fit] | 
COc1ccccc1CNC1CCN(Cc2ccccc2)CC1 | inconclusive: 89.1 µM [inhibitor, single point] | 
CC(C)(C)n1cnc(C(N)=O)c1N | inconclusive: 35.5 µM [inhibitor, single point] | 
